# Experimental data: the supplement of paper PMC8728848
# The list shows a part of the results.
# Tests used:
# Experiment in all cases: glycan array binding signal (z-score within array); higher = stronger binding
# Settings in all cases: glycan notation: IUPAC condensed, linker removed
# [1] = target: Gal(b1-4)GlcNAc(b1-2)Man(a1-6)[GlcNAc(b1-2)Man(a1-3)]Man(b1-4)GlcNAc(b1-4)GlcNAc
# In short: (§1)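 Glycan array binding is given as a within-array Z-score, which can be read as non-binding when negative. The arrays, 3228 of them, came from the Consortium for Functional Glycomics database and were retained only where the protein sequence was available. Z-scores were averaged across arrays of the same protein sequence at different concentrations or buffers and across linkers.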
# [2] = target: Gal(b1-4)GlcNAc(b1-2)Man(a1-6)[Man(a1-3)]Man(b1-4)GlcNAc(b1-4)GlcNAc
# In short: as §1
# [3] = target: Gal(b1-4)GlcNAc(b1-2)[Gal(b1-4)GlcNAc(b1-4)]Man(a1-3)[Gal(b1-4)GlcNAc(b1-2)Man(a1-6)]Man(b1-4)GlcNAc(b1-4)GlcNAc
# In short: as §1
# [4] = target: Gal(b1-4)GlcNAc(b1-2)[Gal(b1-4)GlcNAc(b1-4)]Man(a1-3)[Gal(b1-4)GlcNAc(b1-2)[Gal(b1-4)GlcNAc(b1-6)]Man(a1-6)]Man(b1-4)GlcNAc(b1-4)GlcNAc
# In short: as §1
# [5] = target: Gal(b1-4)GlcNAc(b1-2)[Gal(b1-4)GlcNAc(b1-4)]Man(a1-3)[GlcNAc(b1-4)][Gal(b1-4)GlcNAc(b1-2)Man(a1-6)]Man(b1-4)GlcNAc(b1-4)GlcNAc
# In short: as §1
# [6] = target: Gal(b1-4)GlcNAc(b1-2)[Gal(b1-4)GlcNAc(b1-4)]Man(a1-3)[GlcNAc(b1-4)][Gal(b1-4)GlcNAc(b1-2)[Gal(b1-4)GlcNAc(b1-6)]Man(a1-6)]Man(b1-4)GlcNAc(b1-4)GlcNAc
# In short: as §1
# [7] = target: Gal(b1-4)GlcNAc(b1-2)[Gal(b1-4)GlcNAc(b1-6)]Man(a1-6)[Gal(b1-4)GlcNAc(b1-2)Man(a1-3)]Man(b1-4)GlcNAc(b1-4)GlcNAc
# In short: as §1
# [8] = target: Gal(b1-4)GlcNAc(b1-2)[Gal(b1-4)GlcNAc(b1-6)]Man(a1-6)[Gal(b1-4)GlcNAc(b1-2)Man(a1-3)]Man(b1-4)GlcNAc(b1-4)[Fuc(a1-6)]GlcNAc
# In short: as §1
# [9] = target: Gal(b1-4)GlcNAc(b1-2)[Gal(b1-4)GlcNAc(b1-6)]Man(a1-6)[GlcNAc(b1-4)][Gal(b1-4)GlcNAc(b1-2)Man(a1-3)]Man(b1-4)GlcNAc(b1-4)GlcNAc
# In short: as §1
# [10] = target: Gal(b1-4)GlcNAc(b1-2)[Gal(b1-4)GlcNAc(b1-6)]Man(a1-6)[GlcNAc(b1-4)][Gal(b1-4)GlcNAc(b1-2)[Gal(b1-4)GlcNAc(b1-4)]Man(a1-3)]Man(b1-4)GlcNAc(b1-4)[Fuc(a1-6)]GlcNAc
# In short: as §1
# [11] = target: Gal(b1-4)GlcNAc(b1-3)Gal(b1-3)GalNAc
# In short: as §1
# [12] = target: Gal(b1-4)GlcNAc(b1-3)Gal(b1-3)GlcNAc
# In short: as §1
# [13] = target: Gal(b1-4)GlcNAc(b1-3)Gal(b1-4)Glc
# In short: as §1
# [14] = target: Gal(b1-4)GlcNAc(b1-3)Gal(b1-4)GlcNAc
# In short: as §1
# [15] = target: Gal(b1-4)GlcNAc(b1-3)Gal(b1-4)GlcNAc(b1-2)Man(a1-3)[Gal(b1-4)GlcNAc(b1-3)Gal(b1-4)GlcNAc(b1-2)Man(a1-6)]Man(b1-4)GlcNAc(b1-4)GlcNAc
# In short: as §1
# [16] = target: Gal(b1-4)GlcNAc(b1-3)Gal(b1-4)GlcNAc(b1-2)Man(a1-3)[Gal(b1-4)GlcNAc(b1-3)Gal(b1-4)GlcNAc(b1-2)Man(a1-6)]Man(b1-4)GlcNAc(b1-4)[Fuc(a1-6)]GlcNAc
# In short: as §1
# [17] = target: Gal(b1-4)GlcNAc(b1-3)Gal(b1-4)GlcNAc(b1-2)[Gal(b1-4)GlcNAc(b1-3)Gal(b1-4)GlcNAc(b1-6)]Man(a1-6)[Gal(b1-4)GlcNAc(b1-3)Gal(b1-4)GlcNAc(b1-2)Man(a1-3)]Man(b1-4)GlcNAc(b1-4)GlcNAc
# In short: as §1
# [18] = target: Gal(b1-4)GlcNAc(b1-3)Gal(b1-4)GlcNAc(b1-2)[Gal(b1-4)GlcNAc(b1-3)Gal(b1-4)GlcNAc(b1-6)]Man(a1-6)[Gal(b1-4)GlcNAc(b1-3)Gal(b1-4)GlcNAc(b1-2)Man(a1-3)]Man(b1-4)GlcNAc(b1-4)[Fuc(a1-6)]GlcNAc
# In short: as §1
binder,measurement,setting,value
PkBDPgamma (Plasmodium knowlesi) (protein) SAINQIFLQNNVMDKCNDKRKRGERDWDCPTEKDVCIPDRRYQLCMMEITNLVDTDTHFHSDIIFRKSYSRRRLIYDVGGRGDLLLKKYNNVYSEDLCKDIKWSLQDFGDIIMGTDMEGIGYSLVVQNNLRSIFGTGTSAELDRKKWWNDHKKDIWKAMILSVKEKNRYSAWNCKEDVQIKVEPQIYRWIREWGRDYMSEFREQRRKLNEKCEDKLYYSTMLICTLPPCNNACKSYDEWITGKKKQWDVLSTKFSSVKKAQKIETENIARAYDILKQELNGFNEVTFENEINKRDKLYNYFCVCIVQEARKNTQENVKNVGSGVESKAPSSNPINEAVKSSSGEGKVQEDSAHRSVNEGEGKSSTNEADPGSQPGAAASGGGSGGGTGGGVDLAPQMLRELQETNAALQDVRELLRQQVKEITFLKNTVMECDACGGPLDRNLPPLAPLGPTGGWSHPQFEK,glycan array binding signal (z-score),[1],0.009
same,glycan array binding signal (z-score),[2],-0.572
same,glycan array binding signal (z-score),[3],-0.323
same,glycan array binding signal (z-score),[4],0.246
same,glycan array binding signal (z-score),[5],-0.135
same,glycan array binding signal (z-score),[6],-0.162
same,glycan array binding signal (z-score),[7],-0.484
same,glycan array binding signal (z-score),[8],0.233
same,glycan array binding signal (z-score),[9],-0.34
same,glycan array binding signal (z-score),[10],0.037
same,glycan array binding signal (z-score),[11],-0.023
same,glycan array binding signal (z-score),[12],-0.263
same,glycan array binding signal (z-score),[13],0.051
same,glycan array binding signal (z-score),[14],-0.281
same,glycan array binding signal (z-score),[15],0.431
same,glycan array binding signal (z-score),[16],0.401
same,glycan array binding signal (z-score),[17],0.897
same,glycan array binding signal (z-score),[18],0.013
